# In the supplement of paper PMC9446081:
# Screen size: about 39,000 compounds; about 220 (0.56%) showed activity. Some of the results follow.
# Tested on: Escherichia coli K-12 BW25113
# Assay: relative growth (OD600 normalised to plate interquartile mean) (fraction); higher = less growth inhibition, active = 0.2 or less
# Conditions: 50 µM; LB; incubation time: overnight (16-24 h)
# 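Also: static incubation at 37 °C against the wild-type strain, values averaged over two biological replicates.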
row,Structure (SMILES),relative growth
1,C[C@@H]1CCCCO[C@@H](CN(C)Cc2ccc(Cl)c(Cl)c2)[C@@H](C)CN([C@H](C)CO)C(=O)c2cc(NC(=O)NC3CCCCC3)ccc2O1,inactive: 1
2,COc1ccc(S(=O)(=O)N(C)C[C@H]2Oc3c(NC(=O)C4CC4)cccc3C(=O)N([C@H](C)CO)C[C@H]2C)cc1,inactive: 0.982
3,C[C@H](CO)N1C[C@H](C)[C@@H](CN(C)S(=O)(=O)c2cccs2)Oc2ccc(NC(=O)c3ccncc3)cc2CC1=O,inactive: 1.02
4,C[C@H]1CN([C@@H](C)CO)C(=O)Cc2cc(NC(=O)Nc3cccc4ccccc34)ccc2O[C@H]1CN(C)S(=O)(=O)c1ccc(Cl)cc1,inactive: 1.04
5,CC(C(=O)O)c1cccc(Oc2ccccc2)c1 (stereo not drawn),inactive: 1.03
6,C[C@H]1CN([C@@H](C)CO)C(=O)c2cc(C#Cc3ccccc3F)cnc2O[C@H]1CN(C)S(=O)(=O)c1ccccc1,inactive: 1.02
7,C[C@@H]1CN([C@H](C)CO)C(=O)Cc2cc(NC(=O)Nc3ccccc3)ccc2O[C@H]1CN(C)Cc1ccc(Cl)c(Cl)c1,inactive: 1.02
8,CCCC1CCC(c2ccc(OC(=O)c3ccco3)cc2)CC1 (stereo not drawn),inactive: 1.03
9,O=C(C[C@@H]1C=C[C@H](NS(=O)(=O)c2ccc(F)cc2)[C@@H](CO)O1)NCc1ccc(Cl)c(Cl)c1,inactive: 0.985
10,C[C@@H]1CN([C@H](C)CO)S(=O)(=O)c2ccc(C#Cc3ccccn3)cc2O[C@H]1CN(C)Cc1ccccc1,inactive: 1.04
11,COc1ccc(C#Cc2cnc3c(c2)C(=O)N([C@@H](C)CO)C[C@@H](C)[C@H](CN(C)CC2CCOCC2)O3)cc1,inactive: 1.01
12,C[C@@H]1CCCCO[C@@H](CN(C)Cc2ccc(C(=O)Nc3ccccc3N)cc2)[C@@H](C)CN([C@H](C)CO)C(=O)c2cc(NS(=O)(=O)c3ccc(F)cc3)ccc2O1,inactive: 1
13,CO[C@H]1CN(C)C(=O)c2cc(NS(=O)(=O)c3cn(C)cn3)ccc2OC[C@@H](C)N(CC2CC2)C[C@@H]1C,inactive: 0.961
14,Cc1cccc(CN(C)C[C@@H]2Oc3ncc(-c4cccc(C(F)(F)F)c4)cc3C(=O)N([C@H](C)CO)C[C@@H]2C)c1,inactive: 1
15,COc1ccc(S(=O)(=O)Nc2ccc3c(c2)C(=O)N([C@H](C)CO)C[C@H](C)[C@H](CN(C)C(=O)NC2CCCCC2)OCCCC[C@@H](C)O3)cc1,inactive: 0.984
16,COC(=O)C[C@H]1CC[C@H]2[C@@H](COC[C@H](O)CN2S(=O)(=O)c2ccccc2C)O1,inactive: 0.958
17,O=[Si](O)O,inactive: 0.994
18,C[C@@H]1CCCCO[C@@H](CN(C)S(=O)(=O)c2ccc(F)cc2)[C@H](C)CN([C@@H](C)CO)C(=O)c2cc(NC(=O)Nc3cccc4ccccc34)ccc2O1,inactive: 1.04
19,COc1ccc(NC(=O)Nc2ccc3c(c2)C(=O)N([C@@H](C)CO)C[C@H](C)[C@H](CN(C)C(=O)c2ccccc2)OCCCC[C@H](C)O3)cc1,inactive: 0.993

row,Structure (SMILES),relative growth
1,C[C@@H]1CN([C@H](C)CO)C(=O)Cc2cc(NC(=O)Nc3cccc4ccccc34)ccc2O[C@H]1CN(C)Cc1ccncc1,inactive: 0.984
2,Cc1sc(/N=C/c2ccc(Cl)c(Cl)c2)c(C#N)c1C,inactive: 0.992
3,COc1ccc(NC(=O)Nc2cccc3c2O[C@H](CN(C)Cc2ccc(C(=O)Nc4ccccc4N)cc2)[C@H](C)CN([C@H](C)CO)C3=O)cc1,inactive: 0.97
4,Cc1noc(C)c1NC(=O)N(C)C[C@@H]1OCCCC[C@@H](C)Oc2ccc(NS(=O)(=O)c3ccc(F)cc3)cc2C(=O)N([C@H](C)CO)C[C@H]1C,inactive: 0.981
5,CCCC(=O)Nc1ccc2c(c1)OC[C@@H](C)N(C(=O)CN1CCOCC1)C[C@@H](C)[C@H](OC)CN(C)C2=O,inactive: 0.914
6,C[C@@H]1CN([C@H](C)CO)C(=O)CCCn2cc(nn2)CO[C@H]1CN(C)C(=O)CCCN(C)C,inactive: 1.01
7,C[C@H](CO)N1C[C@H](C)[C@@H](CN(C)Cc2cccc3c2OCCCO3)OCc2ccccc2-c2c(n(C)c3ccccc23)C1=O,inactive: 0.972
8,C[C@@H]1CCCCO[C@@H](CN(C)S(=O)(=O)c2ccc(Cl)cc2)[C@H](C)CN([C@H](C)CO)C(=O)c2cc(NC(=O)Nc3ccccc3)ccc2O1,inactive: 1.06
9,C[C@@H]1CN([C@H](C)CO)C(=O)Cc2cc(NC(=O)c3ccncc3)ccc2O[C@@H]1CN(C)S(=O)(=O)c1cccs1,inactive: 0.966
10,C[C@H](CO)N1C[C@H](C)[C@@H](CN(C)Cc2ccc(C(F)(F)F)cc2)Oc2ccc(NC(=O)Nc3ccccc3)cc2CC1=O,inactive: 1.02
11,C[C@H](CO)N1C[C@H](C)[C@H](CN(C)C(=O)Nc2ccc(-c3ccccc3)cc2)OCc2ccccc2-c2ccccc2C1=O,inactive: 0.99
12,C[C@H]1CN([C@@H](C)CO)C(=O)c2cccc(N(C)C)c2O[C@@H]1CN(C)S(=O)(=O)c1ccc(Cl)cc1,inactive: 0.997
13,CCCNC(=O)N(C)C[C@H]1Oc2cc(-c3ccc(C)cc3)ccc2S(=O)(=O)N([C@@H](C)CO)C[C@H]1C,inactive: 1.02
14,COc1ccc(C#Cc2cnc3c(c2)C(=O)N([C@H](C)CO)C[C@H](C)[C@H](CN(C)S(=O)(=O)c2cccs2)O3)cc1OC,inactive: 1.01
15,COC(=O)C1=CO[C@@H](O[C@@H]2O[C@H](CO)[C@@H](O)[C@H](O)[C@H]2O)[C@@H]2[C@@H](C)[C@@H](O)[C@@H](OC(=O)/C=C/c3ccc(O)c(O)c3)[C@H]12,inactive: 0.99
16,Cc1ccc(S(=O)(=O)Nc2cccc3c2O[C@H](CN(C)Cc2ccc(Oc4ccccc4)cc2)[C@@H](C)CN([C@H](C)CO)C3=O)cc1,inactive: 0.981
17,COc1ccc(C2=C(NC(=O)c3ccc(OC)cc3-c3cccc(OC)c3)C(=O)c3ccccc3C2=O)cc1,inactive: 1.01
18,O=C1C(O)=C(C2CCC(c3ccc(Cl)cc3)CC2)C(=O)c2ccccc21 (stereo not drawn),inactive: 1.19
19,C[C@@H]1CCCCO[C@@H](CN(C)S(=O)(=O)c2ccccc2)[C@@H](C)CN([C@H](C)CO)C(=O)c2cc(NC(=O)CCC(F)(F)F)ccc2O1,inactive: 1.01
